Among all 310,000 compounds or so, about 14,000 (4.5%) showed an effect of 50% or more. Effects have a minus sign here. The list shows a part of the results.
target: human ether-à-go-go-related gene (hERG) potassium channel (human, UniProt Q12809); test: primary screen, population patch clamp on CHO cells stably expressing hERG
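Also: peak tail current of the secondary pulse compared with the same well before compound.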

human ether-à-go-go-related gene (hERG) potassium channel, sequence (Q12809 whole entry, looked up): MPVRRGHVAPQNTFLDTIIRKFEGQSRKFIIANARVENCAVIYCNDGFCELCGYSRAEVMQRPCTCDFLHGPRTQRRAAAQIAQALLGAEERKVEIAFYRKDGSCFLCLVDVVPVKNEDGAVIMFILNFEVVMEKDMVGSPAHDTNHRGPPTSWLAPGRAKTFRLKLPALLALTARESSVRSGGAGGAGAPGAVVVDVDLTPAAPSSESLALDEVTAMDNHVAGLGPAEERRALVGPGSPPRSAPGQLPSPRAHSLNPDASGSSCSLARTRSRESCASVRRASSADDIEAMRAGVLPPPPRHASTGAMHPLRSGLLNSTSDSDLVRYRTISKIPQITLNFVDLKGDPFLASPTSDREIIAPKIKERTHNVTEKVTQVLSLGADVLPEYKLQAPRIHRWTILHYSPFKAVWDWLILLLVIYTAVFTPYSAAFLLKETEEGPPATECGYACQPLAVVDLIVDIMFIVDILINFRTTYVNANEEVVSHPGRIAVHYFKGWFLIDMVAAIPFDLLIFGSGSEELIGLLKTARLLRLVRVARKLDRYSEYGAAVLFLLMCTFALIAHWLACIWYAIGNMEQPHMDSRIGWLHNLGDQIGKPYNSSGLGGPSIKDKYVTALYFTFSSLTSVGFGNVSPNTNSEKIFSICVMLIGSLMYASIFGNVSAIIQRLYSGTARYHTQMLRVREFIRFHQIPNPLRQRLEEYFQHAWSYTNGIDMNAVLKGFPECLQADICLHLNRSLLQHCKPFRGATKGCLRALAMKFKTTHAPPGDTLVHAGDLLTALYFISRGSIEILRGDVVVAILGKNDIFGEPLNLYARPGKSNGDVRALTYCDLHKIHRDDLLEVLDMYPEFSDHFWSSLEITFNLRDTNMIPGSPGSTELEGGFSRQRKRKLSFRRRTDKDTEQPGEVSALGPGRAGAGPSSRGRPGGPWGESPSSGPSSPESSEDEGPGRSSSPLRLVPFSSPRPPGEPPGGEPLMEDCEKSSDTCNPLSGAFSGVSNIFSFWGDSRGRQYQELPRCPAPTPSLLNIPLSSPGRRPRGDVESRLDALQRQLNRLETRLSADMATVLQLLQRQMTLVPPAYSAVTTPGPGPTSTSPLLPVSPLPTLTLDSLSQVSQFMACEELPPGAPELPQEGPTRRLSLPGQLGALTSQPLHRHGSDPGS

Structure (SMILES)	hERG current change (%, negative = inhibition) at 10uM [%]
O=C1NC(=O)C(CCc2ccccn2)(Cc2ccc3c(c2)OCO3)C(=O)N1CCc1ccccc1 (stereo not drawn)	3.03
CC(=O)c1ccc(NC(=S)N(C)C2CCN(C)CC2)cc1	-4.16
CCN(CC)Cc1cc2ccccc2c2c1COC2	-44.1
CCc1ccc2[nH]c(=O)c(C3C(C#N)=C(N)Oc4c3ccc3cccnc43)cc2c1 (stereo not drawn)	-13.2
Cc1ccc(NC(=O)CCC(=O)NNS(=O)(=O)c2ccccc2)c(C)c1	18.4
CCCC(=O)Nc1ccc2c(c1)nc1n2CCN(CCOC)C1	22.2
Cc1ccc(NC(=O)c2ccc(Cl)cc2Cl)cc1O	7.44
CCNC1CCS(=O)(=O)C1 (stereo not drawn)	8.32
Cc1ccc(C)c(COC(=O)c2cc([N+](=O)[O-])ccc2N2CCOCC2)c1	5.73
CCCNC(=O)CSCc1nc(-c2ccc(SC)cc2)oc1C	-7.09
CC1CCN(C(=O)CCS(=O)(=O)c2cc3c(cc2Cl)NC(=O)CO3)CC1	-38.4
CC1=CC2/C=C(\C)CCC(O)C(O)/C=C/C(=O)C23C(=O)NC(CC(C)C)C3C1C (stereo not drawn)	6.66
CNC(=O)CSc1cnc2ccccc2n1	-1.79
COc1ccc(/C=N/NC(=O)c2ccc(=O)[nH]n2)cc1OC	7.69
CC(=O)N1CCN(S(=O)(=O)c2cccc(C(=O)NC3CCCC3)c2)CC1	-3.65
Cc1ccc(OCC(=O)NC(=S)Nc2ccc(Br)c(C)n2)cc1	3.83
COCCCn1c(=O)c2ccccc2c2ccccc2c1=O	-9.39
Cc1ccc(C)c(NC(=O)COC(=O)CCc2ccc(S(=O)(=O)N3CCOCC3)cc2)c1	4.78
Cc1ccc(S(=O)(=O)N2CCCCCC2)cc1[N+](=O)[O-]	0.823
COc1ccc(OCCn2cc(/C=C(\C#N)C(=O)NCc3ccco3)c3ccccc32)cc1	15.5
CCCN[C@@H]1C(=O)N2C(C(=O)OCCC)=C(C)CS[C@H]12	5.12
COc1ccc(C(NC(=O)c2ccco2)c2ccc(OC)c(OC)c2)cc1 (stereo not drawn)	-3.17
Cn1c(O)c(/C=C2\C=c3ccccc3=NC2=O)c(=O)n(C)c1=O	12.4

Structure (SMILES)	hERG current change (%, negative = inhibition) at 10uM [%]
COc1cccc2[nH]c3c(N4CCC(C)CC4)ncnc3c12	-7.97
CC(C)C(c1nnnn1C1CCCC1)N1CCc2ccccc21 (stereo not drawn)	5.61
Cc1cc(C)n2nc(CNS(=O)(=O)c3ccc(F)cc3)nc2n1	9.98
CCOC(=O)C1C(c2ccc(O)cc2)NC(=O)NC1(O)C(F)(F)F (stereo not drawn)	2.48
O=C(O)c1ccc(/C=N/NC(=O)C2CC2(c2ccccc2)c2ccccc2)cc1 (stereo not drawn)	17.9
O=C(NOCc1ccccc1)c1ccc(Cl)cc1Cl	1.61
Cc1c(C(=O)Nc2ccccc2)sc2nc(-c3ccccc3)cn12	-4.89
CCc1cc(C(N)=O)c(NC(=O)c2ccc(OC)cc2)s1	-18.4
Cl.c1ccc(OCCOCCN2CCc3ccccc3C2)cc1	-42.8
COc1ccc(-c2cn[nH]c2-c2ccc(OCc3ccccc3F)cc2O)cc1OC	1.6
O=C(CCCCCNC(=S)Nc1ccc(Cl)cc1)C[N+](=O)[O-]	12.9
COc1ccc(N2CCn3c2nc2c3c(=O)n(CCCc3ccccc3)c(=O)n2C)c(OC)c1	-7.43
CN1CCN(NC(=S)NC2CCCCC2)CC1	-10.7
CN1C(=O)C(c2nnc(Nc3cccc4ccccc34)s2)C2CC1(C)Oc1ccccc12 (stereo not drawn)	-9.11
FC(F)(F)c1ccccc1NC(=S)N1CCc2ccccc2C1	24.7
COc1ccccc1N1CCN(C(=O)c2cc(-c3cccc(Cl)c3)on2)CC1	-0.113
S=C(Nc1ccc(Br)cc1Cl)NC1CCN(Cc2ccccc2)CC1	-2.37
CS(=O)(=O)c1ccc2nc(NC(=O)C3COc4ccccc4O3)sc2c1 (stereo not drawn)	-11.3
Cc1cc(C)cc(CN2C(=O)NC3(CCCCCC3)C2=O)c1	-2.88
Cc1ccc([N+](=O)[O-])cc1NC(=O)Cc1ccc(F)cc1	33.2
Fc1ccc(Cn2nnnc2CN2CCC(n3nnc4cc(C(F)(F)F)ccc43)CC2)cc1	-69.6
Cc1cccc(N2CCN(S(=O)(=O)c3cnc[nH]3)CC2)c1C	-5.35
